Measured values reported in the supplement of paper PMC4604168 (melanoma cell lines).
Some of the results follow. Most values come without repeats; read them as rough.

The compounds below were run on WM115 (assay: cell count relative to DMSO control; melanoma cells; higher = more viable cells). Settings: library dose: standard library concentration; 72 h.
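Note: cells treated in 1,536-well plates, then fixed and DAPI-stained, with nuclei counted from automated high-throughput microscope images.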

| SMILES | cell count [%] |
| --- | --- |
| NC(=O)c1ccc(N(C(N)=O)c2c(F)cccc2F)nc1-c1ccc(F)cc1F + O=C1NC(=O)/C(=C/c2ccc(-c3ccc(F)cc3O)o2)S1 [AS252424] (first compound 2 µM, partner dose 5 µM) | 102 |
| NC(=O)c1ccc(N(C(N)=O)c2c(F)cccc2F)nc1-c1ccc(F)cc1F + COc1ccc(COc2ccc(Cc3cnc(N)nc3N)cc2OC)cc1 [GW2580] (first compound 2 µM, partner dose 5 µM) | 99.9 |
| NC(=O)c1ccc(N(C(N)=O)c2c(F)cccc2F)nc1-c1ccc(F)cc1F + O=C(O)C(=O)Nc1sc2c(c1C(=O)O)CCNC2 [TCS401] (first compound 2 µM, partner dose 8.33333 µM) | 95.9 |
| CC(C)(C)c1cnc(CSc2cnc(NC(=O)C3CCNCC3)s2)o1 + CC(C)CCN1c2nc(Nc3cc(F)c(O)c(F)c3)ncc2N(C)C(=O)C1C [BID1870] (first compound 0.05 µM, partner dose 1 µM) | 92.7 |
| COc1cc2c(Oc3ccc4[nH]c(C)cc4c3F)ncnc2cc1OCCCN1CCCC1 [cediranib] + COc1ccc(-c2ccc3c(N4CCOCC4)nc(N4C[C@@H](C)O[C@@H](C)C4)nc3n2)cc1CO [KU0063794] (first compound 2 µM, partner dose 0.1 µM) | 90.1 |
| CCc1ccc(CCOc2ccc(CC3SC(=O)NC3=O)cc2)nc1 (stereo unspecified) [pioglitazone] + Cn1cc(/C=C2\C(=O)Nc3cccnc32)c2ccccc21 [GW441756] (first compound 10 µM, partner dose 2 µM) | 85.7 |
